# In the supplement of paper PMC8728848:
# Some of the results follow.
# B1: PRKCE (Homo sapiens), Q02156 (protein)
# chain: MVVFNGLLKIKICEAVSLKPTAWSLRHAVGPRPQTFLLDPYIALNVDDSRIGQTATKQKTNSPAWHDEFVTDVCNGRKIELAVFHDAPIGYDDFVANCTIQFEELLQNGSRHFEDWIDLEPEGRVYVIIDLSGSSGEAPKDNEERVFRERMRPRKRQGAVRRRVHQVNGHKFMATYLRQPTYCSHCRDFIWGVIGKQGYQCQVCTCVVHKRCHELIITKCAGLKKQETPDQVGSQRFSVNMPHKFGIHNYKVPTFCDHCGSLLWGLLRQGLQCKVCKMNVHRRCETNVAPNCGVDARGIAKVLADLGVTPDKITNSGQRRKKLIAGAESPQPASGSSPSEEDRSKSAPTSPCDQEIKELENNIRKALSFDNRGEEHRAASSPDGQLMSPGENGEVRQGQAKRLGLDEFNFIKVLGKGSFGKVMLAELKGKDEVYAVKVLKKDVILQDDDVDCTMTEKRILALARKHPYLTQLYCCFQTKDRLFFVMEYVNGGDLMFQIQRSRKFDEPRSRFYAAEVTSALMFLHQHGVIYRDLKLDNILLDAEGHCKLADFGMCKEGILNGVTTTTFCGTPDYIAPEILQELEYGPSVDWWALGVLMYEMMAGQPPFEADNEDDLFESILHDDVLYPVWLSKEAVSILKAFMTKNPHKRLGCVASQNGEDAIKQHPFFKEIDWVLLEQKKIKPPFKPRIKTKRDVNNFDQDFTREEPVLTLVDEAIVKQINQEEFKGFSYFGEDLMP
# Tests used:
# Experiment in all cases: glycan array binding signal (z-score within array); higher = stronger binding
# Details in all cases: glycan notation: IUPAC condensed, linker removed
# [1] = target: Fuc(a1-3)[Gal(b1-4)]GlcNAc(b1-4)Gal(b1-4)[Fuc(a1-3)]GlcNAc
# How it was run: (§1)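 Columns mapping to the same glycan were averaged after glycan names were converted to IUPAC-condensed notation. The data come from 3228 arrays in the Consortium for Functional Glycomics database, limited to those with an available protein sequence. Binding is reported as a within-array Z-score averaged across arrays of one protein sequence and across linkers.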
# [2] = target: Fuc(a1-3)[Gal(b1-4)]GlcNAc(b1-4)Gal(b1-4)[Fuc(a1-3)]GlcNAc(b1-4)Gal(b1-4)[Fuc(a1-3)]GlcNAc
# How it was run: as §1
# [3] = target: Fuc(a1-3)[Gal(b1-4)]GlcNAc(b1-6)GalNAc
# How it was run: as §1
# [4] = target: Fuc(a1-3)[Gal(b1-4)]GlcNAc(b1-6)[Gal(b1-3)GlcNAc(b1-3)]Gal(b1-4)Glc
# How it was run: as §1
# [5] = target: Fuc(a1-3)[Gal(b1-4)]GlcNAc(b1-6)[Neu5Ac(a2-3)Gal(b1-3)]GalNAc
# How it was run: as §1
# [6] = target: Fuc(a1-3)[Gal(b1-4)]GlcNAc6S
# How it was run: as §1
# [7] = target: Fuc(a1-3)[Gal3S(b1-4)]GlcNAc
# How it was run: as §1
# [8] = target: Fuc(a1-3)[Gal3S(b1-4)]GlcNAc6S
# How it was run: as §1
# [9] = target: Fuc(a1-3)[GalNAc(b1-4)]GlcNAc
# How it was run: as §1
# [10] = target: Fuc(a1-3)[GalNAc(b1-4)]GlcNAc6S
# How it was run: as §1
# [11] = target: Fuc(a1-3)[GalNAc3S(b1-4)]GlcNAc
# How it was run: as §1
# [12] = target: Fuc(a1-4)GlcNAc
# How it was run: as §1
# [13] = target: Fuc(b1-3)GlcNAc
# How it was run: as §1
# [14] = target: Gal(a1-2)Gal
# How it was run: as §1
# [15] = target: Gal(a1-3)Gal
# How it was run: as §1
# [16] = target: Gal(a1-3)Gal(b1-3)GlcNAc
# How it was run: as §1
# [17] = target: Gal(a1-3)Gal(b1-3)GlcNAc(b1-2)Man(a1-3)[Gal(a1-3)Gal(b1-3)GlcNAc(b1-2)Man(a1-6)]Man(b1-4)GlcNAc(b1-4)GlcNAc
# How it was run: as §1
# [18] = target: Gal(a1-3)Gal(b1-3)GlcNAc(b1-3)GalNAc
# How it was run: as §1
# [19] = target: Gal(a1-3)Gal(b1-3)GlcNAc(b1-6)GalNAc
# How it was run: as §1
# [20] = target: Gal(a1-3)Gal(b1-3)[Fuc(a1-4)]GlcNAc(b1-2)Man(a1-3)[Gal(a1-3)Gal(b1-3)[Fuc(a1-4)]GlcNAc(b1-2)Man(a1-6)]Man(b1-4)GlcNAc(b1-4)GlcNAc
# How it was run: as §1
# [21] = target: Gal(a1-3)Gal(b1-4)Glc
# How it was run: as §1
# [22] = target: Gal(a1-3)Gal(b1-4)GlcNAc
# How it was run: as §1
# [23] = target: Gal(a1-3)Gal(b1-4)GlcNAc(b1-3)GalNAc
# How it was run: as §1
# [24] = target: Gal(a1-3)Gal(b1-4)GlcNAc(b1-6)GalNAc
# How it was run: as §1
# [25] = target: Gal(a1-3)Gal(b1-4)[Fuc(a1-3)]GlcNAc
# How it was run: as §1
# [26] = target: Gal(a1-3)Gal(b1-4)[Fuc(a1-3)]GlcNAc(b1-2)Man(a1-3)[Gal(a1-3)Gal(b1-4)[Fuc(a1-3)]GlcNAc(b1-2)Man(a1-6)]Man(b1-4)GlcNAc(b1-4)GlcNAc
# How it was run: as §1
# [27] = target: Gal(a1-3)GalNAc
# How it was run: as §1
# [28] = target: Gal(a1-3)[Gal(a1-4)]Gal(b1-4)GlcNAc
# How it was run: as §1
# [29] = target: Gal(a1-4)Gal(b1-3)GlcNAc(b1-2)Man(a1-3)[Gal(a1-4)Gal(b1-3)GlcNAc(b1-2)Man(a1-6)]Man(b1-4)GlcNAc(b1-4)GlcNAc
# How it was run: as §1
# [30] = target: Gal(a1-4)Gal(b1-4)Glc
# How it was run: as §1
binder,measurement,setting,value
B1,glycan array binding signal (z-score),[1],-0.39
same,glycan array binding signal (z-score),[2],-0.315
same,glycan array binding signal (z-score),[3],-0.275
same,glycan array binding signal (z-score),[4],-0.287
same,glycan array binding signal (z-score),[5],-0.246
same,glycan array binding signal (z-score),[6],-0.306
same,glycan array binding signal (z-score),[7],0.149
same,glycan array binding signal (z-score),[8],-0.3
same,glycan array binding signal (z-score),[9],-0.203
same,glycan array binding signal (z-score),[10],-0.356
same,glycan array binding signal (z-score),[11],-0.055
same,glycan array binding signal (z-score),[12],-0.359
same,glycan array binding signal (z-score),[13],-0.408
same,glycan array binding signal (z-score),[14],0.035
same,glycan array binding signal (z-score),[15],-0.356
same,glycan array binding signal (z-score),[16],-0.361
same,glycan array binding signal (z-score),[17],0.18
same,glycan array binding signal (z-score),[18],-0.4
same,glycan array binding signal (z-score),[19],1.47
same,glycan array binding signal (z-score),[20],0.067
same,glycan array binding signal (z-score),[21],-0.108
same,glycan array binding signal (z-score),[22],-0.439
same,glycan array binding signal (z-score),[23],-0.299
same,glycan array binding signal (z-score),[24],-0.236
same,glycan array binding signal (z-score),[25],-0.375
same,glycan array binding signal (z-score),[26],0.183
same,glycan array binding signal (z-score),[27],-0.322
same,glycan array binding signal (z-score),[28],0.295
same,glycan array binding signal (z-score),[29],-0.305
same,glycan array binding signal (z-score),[30],-0.307
